Variants at the background level are over-represented here.
B1: tRNA (parent)
chain: CUCUCGGUAGCCAAGUUGGUUUAAGGCGCAAGACUUUAAUUUAUCACUACGAAAUCUUGAGAUCGGGCGUUCGACUCGCCCCCGGGAGAUUUUUUCCUCGAGCAA

Variants of: B1
Assay: nonsense suppression (GFP-seq) (ratio to wild type); higher = more function; SUP4oc tRNA, yeast GFP reporter sort-seq
Procedure, shortened: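 Nonsense suppression (GFPSEQ) is the median GFP/RFP ratio of each sorting bin, weighted by the variant's estimated share of cells in that bin and expressed relative to the unmutated parent tRNA. Yeast strains carried genome-integrated variants of an ochre-suppressor tRNA from a library with ~3% random mutations, plus a galactose-driven GFP ochre reporter and RFP, and were grown in raffinose/galactose medium containing 80 mg/L adenine. Cells were sorted into GFP/RFP bins, each bin was Illumina-sequenced (phred ≥30), and variants were kept only with ≥100 reads and ≥30 cells.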

Nonsense suppression, 0.0272:
C29U G59C

Nonsense suppression, 0.224:
C29U U76A

Nonsense suppression, 0.098:
A30G A74G

Nonsense suppression, 0.83:
C29U G61A

Nonsense suppression, 0.043:
A30G U76A

Nonsense suppression, 0.077:
A30G A54C

Nonsense suppression, 0.669:
G28U A60C

Nonsense suppression, 0.386:
G28C G61C

Nonsense suppression, 0.25:
A30U A31G

Nonsense suppression, 0.0292:
G28U G78A

Nonsense suppression, 0.152:
G28A G66A

Nonsense suppression, 0.108:
A30G A60G

Nonsense suppression, 0.0328:
G28C C79A G85C

Nonsense suppression, 0.0454:
C29U C77G

Nonsense suppression, 0.035:
C29U C64U

Nonsense suppression, 1.12:
C29G A33G G67A U71G G86A

Nonsense suppression, 1.02:
G28A C75G

Nonsense suppression, 0.205:
A30G U63C

Nonsense suppression, ≤ 0.026:
G28A C34G G59A
G28A C56G
G28A C56G A89C
G28A G32A
G28A G32A A54C G86A
G28A G59C A60U U63C G73A
G28A G65A C68G
G28A G84C
G28A G85C
G28A U35G G65U G73A C80U
G28A U57A C75U G86A
G28A U71C
G28C A30C C68G
G28C A30U G85U
G28C A31G C77A
G28C A31U
G28C A33G
G28C A54U A62C U70A
G28C A60U U70C
G28C A87C
G28C C29G U35A U76G
G28C C34A C68G A89U
G28C C34A U55A
G28C C34G C80G
G28C C34G G59U
G28C C34U
G28C C34U G66A U70G
G28C C56A
G28C C68A
G28C G59A
G28C G65C A87C
G28C G67C C79G
G28C G67C C83A
G28C U35C U70C
G28C U55G
G28C U55G G66U G67U
G28C U57C U71C
G28C U58A
G28C U58A C82U
G28C U58G G66C
G28U A30C C34G
G28U A31C
G28U A31C U35A C72A G73A
G28U A31G A54G
G28U A31U C75G
G28U A33C U63A U71G
G28U A33U C75A
G28U A54G
G28U A54U
G28U A60C G69A
G28U A62C A89C
G28U A62C C68U
G28U A62G
G28U A62G U63A A74C
G28U A62U G84A
G28U A74G G85U
G28U C29G G61C G85U
G28U C34A
G28U C34A A87U
G28U C34A G86C
G28U C34G A60G A87G
G28U C34U U58G
G28U C56A C79A
G28U C56U
G28U C56U U57G C75A
G28U C64A
G28U C68U
G28U C72U
G28U C80A
G28U C80G
G28U C83A
G28U C83U
G28U G59U
G28U G66A C68G U71G
G28U G69U
G28U G69U C81G
G28U G84A
G28U U35A
G28U U35A G86A
G28U U35G G61U
G28U U35G G73A A87C
G28U U55C
G28U U57C C68G
G28U U57G G85A
G28U U58A U70A
G28U U71G
G28U U76A
C29A A31G G67A U76C
C29A A31U U57A U58A A89C
C29A A33G C72A C82G
C29A A33G G61C
C29A A33U
C29A A54U C83A
C29A A74G
C29A A87U
C29A A89C
C29A C34G U63G
C29A C34U
C29A C56G
C29A C64G
C29A C64G G73A
C29A C75U C80A
C29A C79G C83G A87U
C29A G32C G86C
C29A G61U G85U
C29A G66C C77G C79G
C29A G67C
C29A G73A
C29A G73C C75U
C29A G85C
C29A G86U
C29A U35A A54U G61C C80U
C29A U35A A62U G78A G86C
C29A U35C
C29A U55C
C29A U57A C79A
C29A U58C A60C A62U
C29A U58G A89U
C29A U58G G86A A87G
C29A U63C G85A
C29A U63G
C29A U70A G78C
C29A U70C
C29A U70C A74G
C29A U71G
C29A U76G
C29G A31G U70A U71G G84U
C29G A31U
C29G A33G
C29G A33G C82A
C29G A33U A62G
C29G A54C C72G
C29G A54C U63G G66C
C29G A54C U71G
C29G A54G
C29G A54U U76G
C29G A60C G66C G85C
C29G A60G C72G
C29G A60U
C29G A62G G85C
C29G A87G
C29G C34A U76A G84U
C29G C56A U57C G61U C75G
C29G C64U
C29G C68U
C29G C72A A87U
C29G C75G G88U
C29G C75U
C29G C77G
C29G C79G
C29G C81G C83G
C29G G61U
C29G G69U A87C
C29G G73A C82G
C29G G73C
C29G G84U
C29G G88U
C29G U35C A62C G85A
C29G U55A
C29G U57C U63G G69A
C29G U58A
C29G U63C A89C
C29G U70A C79A
C29G U70A G86A
C29G U70C
C29G U71G
C29G U76C
C29G U76C A89C
C29U A30G U35A G65C
C29U A30U G86A
C29U A31C C68U C77A
C29U A31G A33U G78A C79U
C29U A31G G59C A89C
C29U A33G G59C U71C
C29U A33U U58A C75A
C29U A54U G61C A62U
C29U A60C G65U C72G
C29U A60C U76A C77A
C29U A74C C75U
C29U C34U
C29U C34U G86A
C29U C34U U70A
C29U C56A A89C
C29U C56G U58G
C29U C56U
C29U C64A C80U
C29U C68A G88A
C29U C72A
C29U C77U
C29U C79G G86A
C29U C79U G86A
C29U C81G
C29U C83A
C29U G32C U55A
C29U G59C A60U A74U
C29U G61C G85C
C29U G67U G78U
C29U G69U U70G
C29U G78U
C29U G88A
C29U U35A
C29U U35C U55A
C29U U35G G61A C64G G84C
C29U U55G
C29U U55G C82G A87G
C29U U57A G65U
C29U U57A U63G
C29U U57C A62C
C29U U57C G61A C64A G65C G67C
C29U U57G G85C
C29U U58A
C29U U58A G67C C68A G73A
C29U U58C A60G U71G
C29U U70A G84A A87U
C29U U76A G84U
A30C
A30C A31C G67U
A30C A31G
A30C A31G A62C C81A
A30C A31U U71C G86A
A30C A33G
A30C A33G U57A G61C C82A
A30C A33U
A30C A54U A60G A74U
A30C A60G G65A G88C
A30C A60U U63A G69C
A30C A62G
A30C A62U
A30C A89G
A30C C34A U57C G78C
A30C C34U C81U C82U
A30C C56A G73C
A30C C64A C83U G88C A89C
A30C C64U G88C
A30C C68A C79G
A30C C72U
A30C C75A
A30C C75G
A30C C80A
A30C C82A
A30C G32U G84A
A30C G59U
A30C G61C G66C
A30C G66U
A30C G78C
A30C G85C
A30C G86A
A30C G88U
A30C U35G G59C G84A
A30C U35G G73C C77A
A30C U55C G67U C79G
A30C U57A G84C
A30C U57C
A30C U58A G67A
A30C U58G C64G G85A
A30C U63A C81A
A30C U70C U76A
A30C U71G A74C
A30C U76C
A30G A31G A74C C80A
A30G A31G U76C
A30G A31U
A30G A33G C72A
A30G A33U G65C
A30G A33U U71A
A30G A54C G61C
A30G A62C
A30G A62U U63A C68G G73C
A30G A74G C75A A87U
A30G C34A U63C G65U
A30G C34G A89C
A30G C56A C77U
A30G C56G
A30G C64A
A30G C68A A74U
A30G C72U
A30G C77A G78C
A30G C77U
A30G C79G
A30G C80A
A30G C81G
A30G G59C A60C
A30G G61U U63A G84U
A30G G65C C72U
A30G G65C C80U
A30G G66U
A30G G67A
A30G G69U
A30G G78U
A30G G88U
A30G U35G A62G G66C G78A
A30G U58A
A30G U70G A87G
A30G U76C G84U
A30G U76G
A30U A31U C80A
A30U A54G G67U C82A
A30U A62G G65A

Nonsense suppression, 0.0262:
C29U G85U

Nonsense suppression, 0.028:
A30G A74U

Nonsense suppression, 0.239:
G28C G84C

Nonsense suppression, 0.112:
G28C U71C

Nonsense suppression, 0.196:
C29U A30C

Nonsense suppression, 0.0271:
A30G A89U

Nonsense suppression, 0.75:
A30G G61A

Nonsense suppression, 0.0603:
A30G A89C

Nonsense suppression, 0.207:
A30G C79U

Nonsense suppression, 0.575:
A30U

Nonsense suppression, 0.225:
G28C U63A

Nonsense suppression, 0.869:
C29U A54U

Nonsense suppression, 1.11:
A30G

Nonsense suppression, 0.772:
C29U U76C

Nonsense suppression, 0.183:
G28C U55C

Nonsense suppression, 0.251:
A30G G61C

Nonsense suppression, 1.09:
G28A U76C

Nonsense suppression, 0.0447:
G28C U57A

Reference: the RNAGym collection of RNA variant scans (doi:10.1101/gad.245936.114)
